Measured values as given in the supplement of paper PMC8728848.
Some of the results follow.

How the values were obtained:
Assay in all cases: glycan array binding signal (z-score within array); higher = stronger binding
Conditions in all cases: glycan notation: IUPAC condensed, linker removed
[1] = biological target: Gal(b1-4)GlcNAc(b1-2)[Gal(b1-4)GlcNAc(b1-6)]Man(a1-6)[GlcNAc(b1-4)][Gal(b1-4)GlcNAc(b1-2)Man(a1-3)]Man(b1-4)GlcNAc(b1-4)GlcNAc
Procedure, shortened: (§1)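 Glycan array binding is given as a within-array Z-score, which can be read as non-binding when negative. The arrays, 3228 of them, came from the Consortium for Functional Glycomics database and were retained only where the protein sequence was available. Z-scores were averaged across arrays of the same protein sequence at different concentrations or buffers and across linkers.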

[2] = biological target: Gal(b1-4)GlcNAc(b1-2)[Gal(b1-4)GlcNAc(b1-6)]Man(a1-6)[GlcNAc(b1-4)][Gal(b1-4)GlcNAc(b1-2)[Gal(b1-4)GlcNAc(b1-4)]Man(a1-3)]Man(b1-4)GlcNAc(b1-4)[Fuc(a1-6)]GlcNAc
Procedure, shortened: as §1

[3] = biological target: Gal(b1-4)GlcNAc(b1-3)Gal(b1-3)GalNAc
Procedure, shortened: as §1

[4] = biological target: Gal(b1-4)GlcNAc(b1-3)Gal(b1-3)GlcNAc
Procedure, shortened: as §1

[5] = biological target: Gal(b1-4)GlcNAc(b1-3)Gal(b1-4)Glc
Procedure, shortened: as §1

[6] = biological target: Gal(b1-4)GlcNAc(b1-3)Gal(b1-4)GlcNAc
Procedure, shortened: as §1

[7] = biological target: Gal(b1-4)GlcNAc(b1-3)Gal(b1-4)GlcNAc(b1-2)Man(a1-3)[Gal(b1-4)GlcNAc(b1-3)Gal(b1-4)GlcNAc(b1-2)Man(a1-6)]Man(b1-4)GlcNAc(b1-4)GlcNAc
Procedure, shortened: as §1

[8] = biological target: Gal(b1-4)GlcNAc(b1-3)Gal(b1-4)GlcNAc(b1-2)Man(a1-3)[Gal(b1-4)GlcNAc(b1-3)Gal(b1-4)GlcNAc(b1-2)Man(a1-6)]Man(b1-4)GlcNAc(b1-4)[Fuc(a1-6)]GlcNAc
Procedure, shortened: as §1

[9] = biological target: Gal(b1-4)GlcNAc(b1-3)Gal(b1-4)GlcNAc(b1-2)[Gal(b1-4)GlcNAc(b1-3)Gal(b1-4)GlcNAc(b1-6)]Man(a1-6)[Gal(b1-4)GlcNAc(b1-3)Gal(b1-4)GlcNAc(b1-2)Man(a1-3)]Man(b1-4)GlcNAc(b1-4)GlcNAc
Procedure, shortened: as §1

[10] = biological target: Gal(b1-4)GlcNAc(b1-3)Gal(b1-4)GlcNAc(b1-2)[Gal(b1-4)GlcNAc(b1-3)Gal(b1-4)GlcNAc(b1-6)]Man(a1-6)[Gal(b1-4)GlcNAc(b1-3)Gal(b1-4)GlcNAc(b1-2)Man(a1-3)]Man(b1-4)GlcNAc(b1-4)[Fuc(a1-6)]GlcNAc
Procedure, shortened: as §1

[11] = biological target: Gal(b1-4)GlcNAc(b1-3)Gal(b1-4)GlcNAc(b1-3)Gal(b1-4)GlcNAc
Procedure, shortened: as §1

[12] = biological target: Gal(b1-4)GlcNAc(b1-3)Gal(b1-4)GlcNAc(b1-3)Gal(b1-4)GlcNAc(b1-2)Man(a1-3)[Gal(b1-4)GlcNAc(b1-3)Gal(b1-4)GlcNAc(b1-3)Gal(b1-4)GlcNAc(b1-2)Man(a1-6)]Man(b1-4)GlcNAc(b1-4)GlcNAc
Procedure, shortened: as §1

[13] = biological target: Gal(b1-4)GlcNAc(b1-3)Gal(b1-4)GlcNAc(b1-3)Gal(b1-4)GlcNAc(b1-2)Man(a1-3)[Gal(b1-4)GlcNAc(b1-3)Gal(b1-4)GlcNAc(b1-3)Gal(b1-4)GlcNAc(b1-2)Man(a1-6)]Man(b1-4)GlcNAc(b1-4)[Fuc(a1-6)]GlcNAc
Procedure, shortened: as §1

[14] = biological target: Gal(b1-4)GlcNAc(b1-3)Gal(b1-4)GlcNAc(b1-3)Gal(b1-4)GlcNAc(b1-2)[Gal(b1-4)GlcNAc(b1-3)Gal(b1-4)GlcNAc(b1-3)Gal(b1-4)GlcNAc(b1-6)]Man(a1-6)[Gal(b1-4)GlcNAc(b1-3)Gal(b1-4)GlcNAc(b1-3)Gal(b1-4)GlcNAc(b1-2)Man(a1-3)]Man(b1-4)GlcNAc(b1-4)[Fuc(a1-6)]GlcNAc
Procedure, shortened: as §1

[15] = biological target: Gal(b1-4)GlcNAc(b1-3)Gal(b1-4)GlcNAc(b1-3)Gal(b1-4)GlcNAc(b1-3)Gal(b1-4)GlcNAc(b1-2)Man(a1-3)[Gal(b1-4)GlcNAc(b1-3)Gal(b1-4)GlcNAc(b1-3)Gal(b1-4)GlcNAc(b1-3)Gal(b1-4)GlcNAc(b1-2)Man(a1-6)]Man(b1-4)GlcNAc(b1-4)GlcNAc
Procedure, shortened: as §1

[16] = biological target: Gal(b1-4)GlcNAc(b1-3)Gal(b1-4)GlcNAc(b1-3)Gal(b1-4)GlcNAc(b1-3)Gal(b1-4)GlcNAc(b1-2)Man(a1-3)[Gal(b1-4)GlcNAc(b1-3)Gal(b1-4)GlcNAc(b1-3)Gal(b1-4)GlcNAc(b1-3)Gal(b1-4)GlcNAc(b1-2)Man(a1-6)]Man(b1-4)GlcNAc(b1-4)[Fuc(a1-6)]GlcNAc
Procedure, shortened: as §1

[17] = biological target: Gal(b1-4)GlcNAc(b1-3)Gal(b1-4)GlcNAc(b1-3)Gal(b1-4)GlcNAc(b1-3)Gal(b1-4)GlcNAc(b1-2)[Gal(b1-4)GlcNAc(b1-3)Gal(b1-4)GlcNAc(b1-3)Gal(b1-4)GlcNAc(b1-3)Gal(b1-4)GlcNAc(b1-6)]Man(a1-6)[Gal(b1-4)GlcNAc(b1-3)Gal(b1-4)GlcNAc(b1-3)Gal(b1-4)GlcNAc(b1-3)Gal(b1-4)GlcNAc(b1-2)Man(a1-3)]Man(b1-4)GlcNAc(b1-4)[Fuc(a1-6)]GlcNAc
Procedure, shortened: as §1

[18] = biological target: Gal(b1-4)GlcNAc(b1-3)Gal(b1-4)GlcNAc(b1-3)Gal(b1-4)GlcNAc(b1-3)Gal(b1-4)GlcNAc(b1-3)Gal(b1-4)GlcNAc(b1-2)Man(a1-3)[Gal(b1-4)GlcNAc(b1-3)Gal(b1-4)GlcNAc(b1-3)Gal(b1-4)GlcNAc(b1-3)Gal(b1-4)GlcNAc(b1-3)Gal(b1-4)GlcNAc(b1-2)Man(a1-6)]Man(b1-4)GlcNAc(b1-4)GlcNAc
Procedure, shortened: as §1

[19] = biological target: Gal(b1-4)GlcNAc(b1-3)Gal(b1-4)GlcNAc(b1-3)Gal(b1-4)GlcNAc(b1-3)Gal(b1-4)GlcNAc(b1-3)Gal(b1-4)GlcNAc(b1-2)Man(a1-3)[Gal(b1-4)GlcNAc(b1-3)Gal(b1-4)GlcNAc(b1-3)Gal(b1-4)GlcNAc(b1-3)Gal(b1-4)GlcNAc(b1-3)Gal(b1-4)GlcNAc(b1-2)Man(a1-6)]Man(b1-4)GlcNAc(b1-4)[Fuc(a1-6)]GlcNAc
Procedure, shortened: as §1

[20] = biological target: Gal(b1-4)GlcNAc(b1-3)Gal(b1-4)GlcNAc(b1-3)Gal(b1-4)GlcNAc(b1-3)Gal(b1-4)GlcNAc(b1-3)Gal(b1-4)GlcNAc(b1-2)[Gal(b1-4)GlcNAc(b1-3)Gal(b1-4)GlcNAc(b1-3)Gal(b1-4)GlcNAc(b1-3)Gal(b1-4)GlcNAc(b1-3)Gal(b1-4)GlcNAc(b1-6)]Man(a1-6)[Gal(b1-4)GlcNAc(b1-3)Gal(b1-4)GlcNAc(b1-3)Gal(b1-4)GlcNAc(b1-3)Gal(b1-4)GlcNAc(b1-3)Gal(b1-4)GlcNAc(b1-2)Man(a1-3)]Man(b1-4)GlcNAc(b1-4)[Fuc(a1-6)]GlcNAc
Procedure, shortened: as §1

[21] = biological target: Gal(b1-4)GlcNAc(b1-3)Gal(b1-4)GlcNAc(b1-3)Gal(b1-4)GlcNAc(b1-3)Gal(b1-4)GlcNAc(b1-3)Gal(b1-4)GlcNAc(b1-3)Gal(b1-4)GlcNAc(b1-2)Man(a1-3)[Gal(b1-4)GlcNAc(b1-3)Gal(b1-4)GlcNAc(b1-3)Gal(b1-4)GlcNAc(b1-3)Gal(b1-4)GlcNAc(b1-3)Gal(b1-4)GlcNAc(b1-3)Gal(b1-4)GlcNAc(b1-2)Man(a1-6)]Man(b1-4)GlcNAc(b1-4)GlcNAc
Procedure, shortened: as §1

[22] = biological target: Gal(b1-4)GlcNAc(b1-3)Gal(b1-4)GlcNAc(b1-3)GalNAc
Procedure, shortened: as §1

[23] = biological target: Gal(b1-4)GlcNAc(b1-3)Gal(b1-4)GlcNAc(b1-3)[Gal(b1-4)GlcNAc(b1-3)Gal(b1-4)GlcNAc(b1-6)]GalNAc
Procedure, shortened: as §1

[24] = biological target: Gal(b1-4)GlcNAc(b1-3)Gal(b1-4)GlcNAc(b1-6)[Gal(b1-3)]GalNAc
Procedure, shortened: as §1

[25] = biological target: Gal(b1-4)GlcNAc(b1-3)Gal(b1-4)[Fuc(a1-3)]GlcNAc(b1-3)Gal(b1-4)[Fuc(a1-3)]GlcNAc
Procedure, shortened: as §1

[26] = biological target: Gal(b1-4)GlcNAc(b1-3)GalNAc
Procedure, shortened: as §1

[27] = biological target: Gal(b1-4)GlcNAc(b1-3)[Fuc(a1-3)GlcNAc(b1-6)]Gal(b1-4)Glc
Procedure, shortened: as §1

[28] = biological target: Gal(b1-4)GlcNAc(b1-3)[Gal(b1-4)GlcNAc(b1-6)]Gal(b1-4)GlcNAc
Procedure, shortened: as §1

[29] = biological target: Gal(b1-4)GlcNAc(b1-3)[GlcNAc(b1-6)]Gal(b1-4)GlcNAc
Procedure, shortened: as §1

[30] = biological target: Gal(b1-4)GlcNAc(b1-6)Gal(b1-4)GlcNAc
Procedure, shortened: as §1

[31] = biological target: Gal(b1-4)GlcNAc(b1-6)GalNAc
Procedure, shortened: as §1

[32] = biological target: Gal(b1-4)GlcNAc(b1-6)[Gal(b1-3)]GalNAc
Procedure, shortened: as §1

[33] = biological target: Gal(b1-4)GlcNAc(b1-6)[Gal(b1-4)GlcNAc(b1-3)]GalNAc
Procedure, shortened: as §1

[34] = biological target: Gal(b1-4)GlcNAc6P
Procedure, shortened: as §1

[35] = biological target: Gal(b1-6)Gal
Procedure, shortened: as §1

[36] = biological target: Gal3S(b1-3)GalNAc
Procedure, shortened: as §1

[37] = biological target: Gal3S(b1-3)GlcNAc
Procedure, shortened: as §1

[38] = biological target: Gal3S(b1-3)[Fuc(a1-4)]GlcNAc
Procedure, shortened: as §1

B1: PX9961J-bvu-499-24-499 (Bacteroides vulgatus) (protein)
chain: LNTDPSTAVPSDDAIKNIDDAQVALNGIYRLASAHSYYGDNYLYYADCRGEDVQARINKGAGRRVSPYYFFDVTADDNFNITLVWNQPYKVIHQANSLIEKLDAGNAGNARPEEVARIKSEALAMRGLALFDLTRLFGMPYTLDNGASLGVPIEIQTTLEDHAPERNTVAQCYEQVLKDLNDALGGLTKEKHDAYMNYWSVKALLSRVYLYMNDNENALKCAEEVINDNGGIYRLFTHDEYPSVWGKDFNSESLFEFYFTMSEPSGGSGGEGAPMVYADNVKDWNNLILTKAYLDLLNEDPEDVRHVFPHLPENAVADTLPVAAKGQPKYLIKYPGKSGSVTDAVSTVNPQDNDLCILRLSEVYLNAAEAAFKIGNTEKALTYLNAIVTRANPAKSVTSADLSLERILKERRKELVGEGHAFFDYMRNGKSVDRSGGWHLTMPEDARVIAPSDPRVALPIPQTEIDANPNIVQNPR
glycan array binding signal (z-score) [1]: -0.073
glycan array binding signal (z-score) [2]: 0.482
glycan array binding signal (z-score) [3]: -0.725
glycan array binding signal (z-score) [4]: -0.35
glycan array binding signal (z-score) [5]: 0.024
glycan array binding signal (z-score) [6]: 0.003
glycan array binding signal (z-score) [7]: 0.506
glycan array binding signal (z-score) [8]: 1.59
glycan array binding signal (z-score) [9]: 0.177
glycan array binding signal (z-score) [10]: 3.83
glycan array binding signal (z-score) [11]: -0.47
glycan array binding signal (z-score) [12]: 1.01
glycan array binding signal (z-score) [13]: -0.049
glycan array binding signal (z-score) [14]: 0.849
glycan array binding signal (z-score) [15]: 0.075
glycan array binding signal (z-score) [16]: -0.135
glycan array binding signal (z-score) [17]: 0.492
glycan array binding signal (z-score) [18]: 4.09
glycan array binding signal (z-score) [19]: 2.67
glycan array binding signal (z-score) [20]: 0.115
glycan array binding signal (z-score) [21]: 0.326
glycan array binding signal (z-score) [22]: -0.457
glycan array binding signal (z-score) [23]: -0.032
glycan array binding signal (z-score) [24]: -0.305
glycan array binding signal (z-score) [25]: -0.774
glycan array binding signal (z-score) [26]: -0.279
glycan array binding signal (z-score) [27]: -0.409
glycan array binding signal (z-score) [28]: -0.048
glycan array binding signal (z-score) [29]: -0.457
glycan array binding signal (z-score) [30]: -0.357
glycan array binding signal (z-score) [31]: -0.362
glycan array binding signal (z-score) [32]: -0.563
glycan array binding signal (z-score) [33]: 0.035
glycan array binding signal (z-score) [34]: 0.028
glycan array binding signal (z-score) [35]: -0.443
glycan array binding signal (z-score) [36]: -0.266
glycan array binding signal (z-score) [37]: -0.157
glycan array binding signal (z-score) [38]: -0.514
